In patent US12215129B2, “Antibacterial cyclopeptides targeting acinetobacter and other gram-negative pathogens” (priority 2020, dated 2025):
Starred links: 1 amine or outer side, 2 acyl side, 3 side chain; linkers in the order of their positions; H or OH if unused. Positions of bridges follow the written chain, without caps; N, C: chain ends. Non-standard residues stand in square brackets, D forms with d. Residues, ends and D or L forms follow the SMILES beside them. *: point of attachment. dAsp(3R-OH) = N[C@@H](C(=O)O)[C@@H](O)C(=O)O; Palmitoleoyl = CCCCCC/C=C\CCCCCCCC(=O)*; X1 = NC[C@H](O)[C@@H](N[*:1])C(=O)[*:2]; X2 = CCC(C)(O)[C@H](N[*:1])C(=O)[*:2]; d(aIle) = CC[C@H](C)[C@@H](N)C(=O)O; dOrn = NCCC[C@@H](N)C(=O)O; hSer = N[C@@H](CCO)C(=O)O

System: A. baumannii (ATCC 19606)

Compound | inoculum effect, starting cell density (Mueller Hinton broth) | change in MIC of the surviving strain (surviving colony selected with 2)
CCCCCC/C=C\CCCCCCCC(=O)N[C@H](CCCN)C(=O)N[C@@H](CO)C(=O)N[C@H](C(=O)N[C@@H](C(=O)N[C@@H](C(=O)N[C@@H]1C(=O)NCC(=O)N[C@@H](C(C)(O)CC)C(=O)N[C@H]([C@@H](C)CC)C(=O)N[C@@H](CCO)C(=O)N[C@@H](C)C(=O)N[C@H]([C@@H](C)CC)C(=O)N[C@@H](CCC(=O)O)C(=O)O[C@@H]1C)[C@@H](O)CN)[C@@H](O)C(=O)O)C(C)C (stereo partly drawn) [Compound 2, Turnercyclamycin B] (Palmitoleoyl-[dOrn]SV[dAsp(3R-OH)][X1]TG[X2][d(aIle)][hSer]A[d(aIle)]E; ester 6-C) | ~104 CFU/mL | 
Colistin [reference compound] |  | no changes in its MIC
